Experimental data taken from PubChem BioAssay (NCATS).
Several values for one entry are separate records, joined by “and”; a condition that tells them apart may be missing. Equal entries are not always repeated. The inconclusive results got no clear call from the source; some entries with a clear call stand among them for comparison. A call without a number means that no potency is given here. For some of these results: A potency beside an inconclusive call is a rough fit, not a confirmed value. For some of these results: A note “side channel” means that the fit belongs to a control or component signal, not to the main read-out. Activity calls are given as the source filed them. Unless noted, the call rests on the fitted dose curve; in most records, active means well fitted curve in the direction sought with a large enough effect; inconclusive means small, poorly fitted or top-dose-only effect, or another doubt; inactive means no such curve, though single readings can be large; an effect the other way counts as inactive or inconclusive.

Experiments:
[1] = Cell Viability - NIH 3T3 (AID 541); conditions: NIH 3T3 cell viability, qHTS; activity change, negative = cytotoxicity: at 92.2 µM (top of the series);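 further: cells exposed to compound for 40 hours; nearly all actives have a fitted effect of over 25% in size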
Method in brief: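 AC50 values reflect concentration-dependent loss of intracellular ATP in NIH 3T3 cells after 40 hr treatment in complete culture medium, quantified by luciferase-based luminescence.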

[2] = MultiTox-Fluor Cytotoxicity Assay - LYMP1-003 - Dead Cells (AID 961); further: nearly all actives have a fitted effect of over 70% in size
Method in brief: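 LYMP1-003 human lymphoblastoid cells (2500/well) exposed to compound 16 h at 37 C in complete medium; dead-cell protease read with bis-AAF-R110 fluorescence (Ex/Em 485/520) after 60 min at room temperature. Normalized to DMSO and 15 uM tetraoctylammonium bromide; AC50 from Hill fit.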

[3] = Cell Viability - LYMP2-005 (AID 967)
Method in brief: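 Luciferase-based ATP quantitation served as the viability measure in human lymphoblastoid LYMP2-005 cells exposed to test compounds for 24 h at 37 C in complete culture medium. Potency (AC50) was obtained by fitting concentration-response curves with the Hill equation.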

[4] = target: Bile acid receptor (Homo sapiens) (UniProt Q96RI1); test: qHTS assay for small molecule antagonists of farnesoid X receptor signaling (AID 588526; calls by dose curve); conditions: HEK293T FXR-UAS-bla, beta-lactamase ratio, antagonist mode; activity change, negative = inhibition: at 76.7 µM (top of the series)
UniProt Q96RI1, sequence (Q96RI1 whole entry, looked up): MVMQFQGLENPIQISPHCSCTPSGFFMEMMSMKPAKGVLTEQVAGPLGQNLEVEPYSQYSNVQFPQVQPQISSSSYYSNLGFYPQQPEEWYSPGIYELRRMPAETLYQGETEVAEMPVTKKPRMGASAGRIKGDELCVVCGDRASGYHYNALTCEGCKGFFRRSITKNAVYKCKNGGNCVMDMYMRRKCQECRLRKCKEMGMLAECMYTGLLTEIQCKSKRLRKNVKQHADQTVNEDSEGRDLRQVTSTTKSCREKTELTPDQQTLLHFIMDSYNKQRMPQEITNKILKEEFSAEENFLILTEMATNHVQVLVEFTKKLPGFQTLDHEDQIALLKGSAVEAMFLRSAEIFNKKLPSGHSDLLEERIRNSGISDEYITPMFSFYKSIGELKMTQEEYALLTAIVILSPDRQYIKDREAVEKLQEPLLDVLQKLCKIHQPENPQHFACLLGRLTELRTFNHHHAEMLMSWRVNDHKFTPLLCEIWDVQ
Method in brief: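 Antagonist mode: titrated compounds tested against chenodeoxycholic acid stimulation (normalized to 50 uM CDCA and DMSO) in GeneBLAzer HEK293T cells for 16 h. Beta-lactamase read by CCF4 fluorescence; IC50 from Hill fits.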

[5] = target: Glucocorticoid receptor (Homo sapiens) (UniProt P04150); test: qHTS assay for small molecule antagonists of glucocorticoid receptor signaling (AID 588533; active means well fitted inhibition curve with a large enough effect in the signal ratio, with a control signal flat, not every such curve was filed as active; inconclusive means small, poorly fitted or top-dose-only effect, or effect the other way, or a change in a side signal; the % refers to the signal ratio;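 further: cells stimulated with 2 nM dexamethasone as agonist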); conditions: HeLa MMTV-bla, GRE beta-lactamase ratio, antagonist mode, 18 h; activity change, negative = inhibition: at 76.8 µM (top of the series)
[6] = target: Peroxisome proliferator-activated receptor delta (Homo sapiens) (UniProt Q03181); test: qHTS assay for small molecule antagonists of peroxisome proliferator-activated receptor delta signaling (AID 588535; active means well fitted inhibition curve with a large enough effect in the signal ratio, with a control signal flat, not every such curve was filed as active; inconclusive means small, poorly fitted or top-dose-only effect, or effect the other way, or a change in a side signal; inactive means no such curve, though single readings can be large or run the other way; the % refers to the signal ratio); conditions: HEK293T PPARd-UAS-bla, beta-lactamase FRET ratio, 18 h; activity change, negative = inhibition: at 76.7 µM (top of the series)
UniProt Q03181, sequence (Q03181 whole entry, looked up): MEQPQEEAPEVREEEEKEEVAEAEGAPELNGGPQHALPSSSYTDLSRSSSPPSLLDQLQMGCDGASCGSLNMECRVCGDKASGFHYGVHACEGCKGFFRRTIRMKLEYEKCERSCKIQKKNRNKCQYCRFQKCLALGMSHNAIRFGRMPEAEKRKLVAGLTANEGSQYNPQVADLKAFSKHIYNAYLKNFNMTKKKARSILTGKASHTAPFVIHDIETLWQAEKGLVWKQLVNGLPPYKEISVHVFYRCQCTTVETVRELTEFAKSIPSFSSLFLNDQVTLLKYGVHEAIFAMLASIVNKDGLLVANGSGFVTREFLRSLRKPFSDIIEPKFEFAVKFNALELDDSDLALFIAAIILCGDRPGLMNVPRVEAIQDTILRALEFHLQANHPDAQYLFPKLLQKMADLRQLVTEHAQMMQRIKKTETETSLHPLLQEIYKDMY
Method in brief: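 Cells were seeded at 4000 per well in assay medium containing 2% charcoal/dextran FBS and held 5 hrs at 37 C. Compounds were then added for 18 hrs. CCF4 substrate was applied for 2 hrs at room temperature before fluorescence reading.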

[7] = target: Peroxisome proliferator-activated receptor gamma (Homo sapiens) (UniProt P37231); test: qHTS assay for small molecule antagonists of peroxisome proliferator-activated receptor gamma signaling (AID 588537; active means well fitted inhibition curve with a large enough effect in the signal ratio, with a control signal flat, not every such curve was filed as active; inconclusive means small, poorly fitted or top-dose-only effect, or effect the other way, or a change in a side signal; the % refers to the signal ratio;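 further: reporter cells co-stimulated with 50 nM rosiglitazone agonist during compound treatment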); conditions: HEK293 PPARg-UAS-bla, beta-lactamase ratio, antagonist mode
Method in brief: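 Step one: plate 3000 HEK293 UAS-bla cells per well in medium with 1% stripped serum and hold 6-6.5 h at 37 C. Step two: add compound and 50 nM agonist for 16 h. Step three: CCF4 loading, fluorescence read.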

[8] = target: Vitamin D3 receptor (Homo sapiens) (UniProt P11473); test: qHTS assay for small molecule agonists of vitamin D receptor signaling (AID 588543; calls by dose curve); conditions: HEK293T VDR-UAS-bla, beta-lactamase ratio, 16 h; activation: at 76.8 µM (top of the series)
UniProt P11473, sequence (P11473 whole entry, looked up): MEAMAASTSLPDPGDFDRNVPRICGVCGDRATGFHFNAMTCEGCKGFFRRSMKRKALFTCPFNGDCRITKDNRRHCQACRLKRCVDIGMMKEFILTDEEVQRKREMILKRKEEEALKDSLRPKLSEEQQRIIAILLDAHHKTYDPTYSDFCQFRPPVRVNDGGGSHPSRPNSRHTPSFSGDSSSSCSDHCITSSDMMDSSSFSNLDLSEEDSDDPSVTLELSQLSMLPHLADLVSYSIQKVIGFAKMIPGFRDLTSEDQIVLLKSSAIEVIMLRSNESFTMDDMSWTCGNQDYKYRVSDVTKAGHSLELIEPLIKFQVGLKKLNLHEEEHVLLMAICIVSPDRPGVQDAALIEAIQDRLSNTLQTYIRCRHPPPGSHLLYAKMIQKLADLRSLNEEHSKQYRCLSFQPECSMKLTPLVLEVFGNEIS
Method in brief: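 Measured: β-lactamase reporter activity (CCF4, 405 nm excitation, 460/530 nm emission) in HEK293T VDR-UAS-bla cells after 16 h compound exposure at 37 °C. Normalization against 50 nM 1α,25-dihydroxyvitamin D3 and DMSO; Hill-fit EC50.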

[9] = target: Thyroid hormone receptor beta (Homo sapiens) (UniProt P10828); test: qHTS assay for small molecule agonists of thyroid hormone receptor beta signaling (AID 588545; calls by dose curve; further: potency means the concentration at half of the fitted maximal effect); conditions: TR-UAS-bla GripTite HEK 293, beta-lactamase ratio, agonist mode, 18 h; activation: at 76.7 µM, percent of T3 response, DMSO as zero
UniProt P10828, sequence (P10828 whole entry, looked up): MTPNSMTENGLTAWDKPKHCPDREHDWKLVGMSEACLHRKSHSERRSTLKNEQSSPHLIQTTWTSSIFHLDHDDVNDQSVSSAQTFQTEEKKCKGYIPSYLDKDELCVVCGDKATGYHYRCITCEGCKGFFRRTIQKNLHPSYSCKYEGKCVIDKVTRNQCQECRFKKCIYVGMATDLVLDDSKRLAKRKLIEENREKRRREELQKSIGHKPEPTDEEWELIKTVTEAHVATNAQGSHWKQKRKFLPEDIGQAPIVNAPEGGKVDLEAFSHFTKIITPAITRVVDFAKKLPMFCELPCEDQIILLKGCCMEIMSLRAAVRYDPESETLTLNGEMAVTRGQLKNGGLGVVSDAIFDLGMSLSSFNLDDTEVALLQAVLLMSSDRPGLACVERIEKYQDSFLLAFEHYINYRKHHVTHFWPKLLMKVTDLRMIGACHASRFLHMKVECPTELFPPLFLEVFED
Method in brief: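 Agonist activity was read as beta-lactamase CCF4 fluorescence (405 ex, 460/530 em), scaled between DMSO (0%) and 10 nM T3 (100%), then Hill-fitted for EC50 and efficacy. HEK 293 TR-UAS-bla cells in 2% charcoal/dextran FBS medium were exposed 18 h at 37 C.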

[10] = target: Thyroid hormone receptor beta (Homo sapiens) (UniProt P10828); test: qHTS assay for small molecule antagonists of thyroid hormone receptor beta signaling (AID 588547; active means well fitted inhibition curve with a large enough effect in the signal ratio, with a control signal flat, not every such curve was filed as active; inconclusive means small, poorly fitted or top-dose-only effect, or effect the other way, or a change in a side signal; the % refers to the signal ratio;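 further: cells stimulated with 0.4 nM T3 agonist during compound exposure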); conditions: TR-UAS-bla HEK293, beta-lactamase ratio, antagonist mode, 18 h
Method in brief: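 TR-UAS-bla GripTite HEK293 cells in 2% charcoal/dextran FBS medium; compounds 0.59 nM to 92 uM with T3 at 0.4nM final, 18 h at 37 C. Beta-lactamase read by CCF4 fluorescence (460/530 nm); Hill fits gave IC50 and efficacy.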

[11] = S16 Schwann cell viability assay (CellTiter-Glo assay) (AID 624031);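 further: cellular ATP luminescence as a viability measure; nearly all actives have a fitted effect of over 70% in size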
Method in brief: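 Untransfected S16 rat Schwann cells; compound 24 h, 37 °C/5% CO2; CellTiter-Glo ATP luminescence. % activity vs no-cell wells and DMSO controls (0%); concentration-effect curves classed by r2, response magnitude, activity.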

[12] = S16 Schwann cell PMP22 intronic element firefly luciferase assay (AID 624032); further: potency means the concentration at half of the fitted maximal effect; nearly all actives have a fitted effect of over 30% in size
Method in brief: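 Rat S16 Schwann cells stably carrying firefly luciferase driven by a PMP22 intronic element, in 10% FBS, treated 24 h at 37 C. ONE-Glo luminescence normalized to PTC124 control and DMSO (0%); curves classed by r2, magnitude and activity.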

[13] = qHTS assay for small molecule agonists of the antioxidant response element (ARE) signaling pathway (AID 651741; active means well fitted activation curve with a large enough effect in the signal ratio; inconclusive means small, poorly fitted or top-dose-only effect, or effect the other way, or a change in a side signal; the % refers to the signal ratio; further: potency means the concentration at half of the fitted maximal effect); conditions: HepG2 ARE-bla reporter, beta-lactamase FRET ratio, 16 h; activation: at 96 µM (top of the series)
Method in brief: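 HepG2 ARE-bla cells plated at 2,000 cells/well and incubated 5 h at 37 C/5% CO2 received 23 nL compound in DMSO. After 16 h at 37 C, LiveBLAzer B/G FRET substrate was applied for 2 h at room temperature and fluorescence read.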

[14] = qHTS assay for small molecule disruptors of the mitochondrial membrane potential - 1 hr assay (AID 651754; calls by dose curve; further: nearly all actives have a fitted effect of over 35% in size); conditions: ratio change, negative = depolarisation: at 92.2 µM (top of the series)
Method in brief: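 Steps: seed HepG2 cells and let attach overnight; pin-transfer compound or vehicle; incubate 1 hr at 37C; add Mito-MPS dye for 30 min; read two-channel fluorescence for monomer and aggregate forms.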

[15] = qHTS assay to identify small molecules that stimulate interleukin-8 (IL-8) secretion (AID 651758; active means well fitted activation curve with a large enough effect in the signal ratio; inconclusive means small, poorly fitted or top-dose-only effect, or effect the other way, or a change in a side signal; the % refers to the signal ratio); conditions: HTRF ratio (665/615); activation: at 92.2 µM (top of the series)
Method in brief: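 THP-1 cells (2000/well) exposed to compound 16 h at 37 C; secreted IL-8 then detected by HTRF with cryptate- and XL665-labelled anti-IL-8 antibody pair after 1-3 h at room temperature.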

[16] = qHTS of pediatric cancer cell lines to identify multiple opportunities for drug repurposing: Primary screen for TC32 cells (AID 1347089); further: nearly all actives have a fitted effect of over 60% in size
Method in brief: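 A viability screen of TC32 cells was run over 48 h, with primary MIPE doses spanning 0.78 nM–46 µM and NPC doses 0.59 nM–46 µM. ATP luminescence (CellTiter-Glo) served as the read-out.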

[17] = qHTS of pediatric cancer cell lines to identify multiple opportunities for drug repurposing: Primary screen for BT-37 cells (AID 1347094)
Method in brief: (§1)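 500-1,000 cells/well; 5 h pre-incubation 37 °C/5% CO2; compound pinned; 48 h; CellTiter-Glo, 15 min RT; luminescence. MIPE 11-pt from 0.78 nM, NPC 8-pt from 0.59 nM final. Bortezomib 2.3 µM final as positive control.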

[18] = qHTS of pediatric cancer cell lines to identify multiple opportunities for drug repurposing: Primary screen for Saos-2 cells (AID 1347097); further: nearly all actives have a fitted effect of over 40% in size
Method in brief: as §1

[19] = qHTS of pediatric cancer cell lines to identify multiple opportunities for drug repurposing: Primary screen for NB1643 cells (AID 1347099); further: nearly all actives have a fitted effect of over 50% in size
Method in brief: as §1

[20] = Counterscreen qHTS for small molecule stabilizers of the endoplasmic reticulum resident proteome: GLuc-NoTag assay (AID 1508627);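 further: SH-SY5Y cells given compound then 100 nM thapsigargin to empty ER calcium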
Method in brief: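 SH-SY5Y cells stably expressing constitutively secreted GLuc without SERCaMP tag, exposed to compound for 19 hr, then to 100 nM thapsigargin for 4 hr at 37C. Medium luciferase was read by coelenterazine luminescence without lysis.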

[21] = Confirmatory qHTS for small molecule stabilizers of the endoplasmic reticulum resident proteome: Secreted ER Calcium Modulated Protein (SERCaMP) assay (AID 1508628);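 further: SH-SY5Y cells given compound 16 h then thapsigargin 100 nM for 4 h; nearly all actives have a fitted effect of over 40% in size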
Method in brief: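 We seeded SH-SY5Y-GLuc-SERCaMP cells, added compounds (three concentrations in the primary run, eleven up to 76.6 uM in confirmation), incubated 16 h, depleted ER calcium with thapsigargin, and read luciferase 4 h later.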

[22] = Primary qHTS for small molecule stabilizers of the endoplasmic reticulum resident proteome: Secreted ER Calcium Modulated Protein (SERCaMP) assay (AID 1508630); conditions: SH-SY5Y GLuc-SERCaMP (Gaussia luciferase released on ER calcium loss) secretion, thapsigargin, luminescence; activity change, negative = inhibition: at 38.4 µM (top of the series) unless noted; further: potency means the concentration at half of the fitted maximal effect
Method in brief: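 GLuc-SERCaMP-expressing SH-SY5Y cells, pretreated 16 h with compound, are challenged with thapsigargin to empty ER calcium stores; after 4 h, coelenterazine is added directly to the medium and luminescence is imaged.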

[23] = target: Cytochrome P450 2D6 (Homo sapiens) (UniProt P10635); test: Cytochrome P450 family 2 subfamily D member 6 (CYP2D6) small molecule antagonists: luciferase biochemical (cell-free) qHTS assay (AID 1645840; active means well fitted curve in the direction sought with a large enough effect in the repeat runs; inconclusive means weak or mixed curves; inactive means no such curve, though single readings can be large; an effect the other way counts as inactive or inconclusive; further: nearly all actives have a fitted effect of over 55% in size)
UniProt P10635, sequence (P10635 whole entry, looked up): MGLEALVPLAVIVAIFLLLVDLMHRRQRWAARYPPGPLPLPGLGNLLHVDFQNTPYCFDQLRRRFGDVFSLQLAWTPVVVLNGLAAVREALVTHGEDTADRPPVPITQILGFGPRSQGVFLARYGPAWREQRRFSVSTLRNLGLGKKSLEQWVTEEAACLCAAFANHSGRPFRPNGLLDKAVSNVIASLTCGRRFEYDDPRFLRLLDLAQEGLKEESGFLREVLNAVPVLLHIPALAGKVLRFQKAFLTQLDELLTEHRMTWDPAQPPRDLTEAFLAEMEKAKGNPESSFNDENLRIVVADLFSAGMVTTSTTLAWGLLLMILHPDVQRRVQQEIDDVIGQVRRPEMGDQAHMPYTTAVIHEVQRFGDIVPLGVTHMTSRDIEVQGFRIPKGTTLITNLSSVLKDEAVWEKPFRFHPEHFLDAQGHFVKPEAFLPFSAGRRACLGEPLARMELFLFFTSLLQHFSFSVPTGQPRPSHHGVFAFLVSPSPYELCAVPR
Method in brief: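 P450-Glo luminescent screen: recombinant CYP2D6 enzyme–proluciferin substrate mix preincubated with compound 10 min at room temperature, then NADPH regeneration added for 1 h at room temperature. Detection reagent added for 20 min; luciferin light read as relative luminescence units.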

[24] = system: CP201; test: qHTS profiling for inhibitors of Plasmodium falciparum proliferation (AID 504749); further: nearly all actives have a fitted effect of over 60% in size; further: potency means the concentration at half of the fitted maximal effect; conditions: P. falciparum in erythrocytes, SYBR Green DNA, 72 h; series mostly up to 28.7 µM
Method in brief: (§2)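 Readout was DNA-dye fluorescence from lysed cultures, ex 485/em 535 nm. Parasitized red cells had grown 72 h with compound; data scaled between 0.29 uM artemisinin and DMSO wells and corrected using vehicle-only plates.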

[25] = system: CP247; test: as above; conditions: P. falciparum in erythrocytes, SYBR Green DNA, 72 h; series mostly up to 28.7 µM
Method in brief: as §2

[26] = system: CP260; test: as above; conditions: P. falciparum in erythrocytes, SYBR Green DNA, 72 h; series mostly up to 28.7 µM
Method in brief: as §2

[27] = system: CP266; test: as above; conditions: P. falciparum in erythrocytes, SYBR Green DNA, 72 h; series mostly up to 28.7 µM
Method in brief: as §2

[28] = system: DIV14; test: as above; conditions: P. falciparum in erythrocytes, SYBR Green DNA, 72 h; series mostly up to 28.7 µM
Method in brief: as §2

[29] = system: PC26; test: as above; conditions: P. falciparum in erythrocytes, SYBR Green DNA, 72 h; series mostly up to 28.7 µM
Method in brief: as §2

[30] = system: CRL-7250; test: Cytotoxic Profiling of Annotated Libraries Using Quantitative High-Throughput Screening (AID 1296008); conditions: Five cell lines viability, CellTiter-Glo ATP luminescence, 48-72 h; max response: stronger effect = lower value; further: nearly all actives have a fitted effect of over 60% in size
Method in brief: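 Cells exposed to compounds for 48 or 72 hr at 37 degrees Celsius. Viability read as ATP-coupled luminescence with CellTiter-Glo after 10 min at room temperature.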

[31] = system: CAOV3; test: Primary qHTS to identify gynecologic anti-cancer compounds using libraries of approved drugs and bioactive compounds (AID 1345084); conditions: Gynecologic cancer cell panel viability, ATPlite luminescence, 48 h; activity change, negative = cytotoxicity: at 57.5 µM (top of the series); further: nearly all actives have a fitted effect of over 55% in size
Method in brief: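 Five-point cytotoxicity, 48 h drug exposure at 37 C, 5% CO2, on cells seeded 16 h beforehand. ATP content read by ATPlite luminescence.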

[32] = Drug repurposing screens with cells derived from glioblastoma tumor samples (AID 1345199); conditions: GBM patient neurospheres viability, ATP luminescence, 48 h; Potency: tumour line A unless noted; activity, negative = cell killing: at 46 µM (top of the series), tumour line A unless noted; further: nearly all actives have a fitted effect of over 40% in size
Method in brief: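 Four patient lines of CD133+ GBM neurospheres were screened at several concentrations; hits were retested in those lines plus three slower-growing GBM lines, using 48-hour treatment and ATP-based viability.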
Tags describe the fitted curve by direction and shape.

Structure (SMILES): CCN(CC)C(=O)c1cccc(C)c1
- activity change, negative = cytotoxicity [1]: inconclusive: -63.2%
- Potency [2]: inactive
- Potency [3]: inactive
- Potency [4]: inactive
- activity change, negative = inhibition [5]: inconclusive: -1.15%
- activity change, negative = inhibition [6]: inconclusive: -7.05%
- activity, negative = inhibition ([7]; activity, negative = inhibition: at 76.8 µM (top of the series)): inconclusive: 5.66%
- activity, negative = inhibition ([7]; at 76.8 µM (top of the series)): inactive: 6.96%
- Potency [8]: inactive
- Potency [9]: inconclusive: 0.0079 µM [side channel, falling, full curve, poor fit]
- activation [9]: inconclusive: -3.73%
- activity change % (negative = inhibition) [10]: inconclusive: -2.52%
- Potency [11]: inactive
- Potency [12]: inconclusive: 28.7 µM [inhibitor, partial curve]
- Potency [13]: inactive and inconclusive: 54.5 nM [cytotoxic, side channel, full curve, poor fit]
- ratio change, negative = depolarisation [14]: inconclusive: -20.8%
- Potency [15]: inactive
- Potency [16]: inactive
- Potency [17]: inactive
- Potency [18]: inactive
- Potency [19]: inactive
- Potency [20]: inactive
- Potency [21]: inactive
- Potency [22]: inconclusive: 20 µM [inhibitor, full curve]
- Potency [23]: inactive
- Potency [24]: inactive
- Potency [25]: inactive
- Potency [26]: inconclusive: 17.8 µM [inhibitor, single point]
- Potency [27]: inactive
- Potency [28]: inactive
- Potency [29]: inactive
- outcome [30]: inactive
- Potency [31]: inactive
- Potency [32]: inactive
